Experimental data reported in PubChem BioAssay AID588453 (National Center for Advancing Translational Sciences (NCATS), 2011).
Several values for one entry are separate records, joined by “and”; a condition that tells them apart may be missing. Equal entries are not always repeated. Screen size: about 390,000 compounds; about 4,000 (1%) were called active. The inconclusive results got no clear call from the source; some entries with a clear call stand among them for comparison. Calls come from the whole dose curve; as a rule, active = well fitted inhibition curve with a large enough effect; inconclusive = small, poorly fitted or top-dose-only effect; inactive = no such curve, though single readings can be large or run the other way. Potencies beside an inconclusive call are fits to weak or partial responses and may not hold up. A structure can be active in one record and inactive in another.

Molecular target: Thioredoxin reductase 1, cytoplasmic (Rattus norvegicus) (UniProt O89049)
Chain of UniProt O89049 (O89049 whole entry, looked up): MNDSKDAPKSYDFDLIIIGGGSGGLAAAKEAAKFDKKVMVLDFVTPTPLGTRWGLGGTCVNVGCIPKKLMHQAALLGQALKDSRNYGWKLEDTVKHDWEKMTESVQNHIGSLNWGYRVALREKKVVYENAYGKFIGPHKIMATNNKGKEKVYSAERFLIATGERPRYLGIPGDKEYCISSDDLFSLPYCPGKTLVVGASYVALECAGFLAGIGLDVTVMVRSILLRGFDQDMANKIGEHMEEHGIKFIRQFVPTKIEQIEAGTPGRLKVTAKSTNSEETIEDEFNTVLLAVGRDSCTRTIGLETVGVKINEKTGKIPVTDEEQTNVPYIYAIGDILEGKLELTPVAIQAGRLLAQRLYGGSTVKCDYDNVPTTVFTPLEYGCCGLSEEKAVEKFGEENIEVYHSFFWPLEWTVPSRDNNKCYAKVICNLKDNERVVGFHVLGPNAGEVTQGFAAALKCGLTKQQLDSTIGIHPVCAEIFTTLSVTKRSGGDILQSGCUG
Test: qHTS Assay for Inhibitors of Mammalian Selenoprotein Thioredoxin Reductase 1 (TrxR1): qHTS; note: nearly all actives have a fitted effect of over 65% in size
Settings: recombinant rTrxR1, NADPH fluorescence consumption, selenite substrate; series mostly up to 114 µM; activity change, negative = inhibition: at the top concentration
Summary of the method: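 Rat TrxR1 (90 nM in the dispensed reagent) was pre-reduced with 400 uM NADPH for 5 min at room temperature, then incubated with compound for 15 min. After 400 uM selenite was added, NADPH fluorescence (Ex 340/Em 450 nm) was followed for 8 min.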
% is set by controls: 0 for no effect and ±100 for the full control effect; potency is the fitted concentration of half-maximal effect; tags give direction and shape of the fitted curve.

| SMILES | Potency | activity change, negative = inhibition |
| --- | --- | --- |
| S=c1[nH]nc(-c2ccco2)n1/N=C/C=C/c1ccco1 | inconclusive: 35.5 µM [inhibitor, partial curve] | – |
| COc1cc2oc(=O)c(CC(=O)NCCc3ccccc3F)c(C)c2cc1OC | inconclusive: 56.2 µM [inhibitor, partial curve, poor fit] | – |
| NC1=NC(=O)C(=Cc2ccccc2)S1 | – | inactive: -20.5% [at 11.4 µM] |
| O=c1oc(CCCO)cc2ccc(Br)cc12 | – | inactive: 5.16% |
| c1ccc(-c2nc3ccccc3[nH]2)cc1 | – | inactive: 7.3% |
| Cc1ccc(/C=C/C(=O)OCC(=O)NCc2cccs2)o1 | active: 56.2 µM | – |
| O=C(N/N=C/c1coc2ccc(Cl)cc2c1=O)c1ccncc1 | inconclusive: 56.2 µM [inhibitor, partial curve, poor fit] | – |
| CCN1CCCC1CNC(=O)c1cc2c(=O)n(C)c3ccccc3c2n1C (stereo not drawn) | inconclusive: 56.2 µM [inhibitor, partial curve, poor fit] | – |
| COc1cc(CN2CCNC(=O)C2CC(=O)N2CCc3ccccc3C2)cc(OC)c1 (stereo not drawn) | inconclusive: 50.1 µM [inhibitor, partial curve] | – |
| O=c1c2sc3ccccc3c2[nH]c(=S)n1CCN1CCOCC1 | inconclusive: 15.8 µM [inhibitor, partial curve] | – |
| CCc1ccc(NS(=O)(=O)c2ccc(C)c(C(=O)N3CCOCC3)c2)cc1 | – | inactive: 11.4% |
| C/C(CCc1oc2c(Br)cc(Br)cc2c1-c1ccc(C)o1)=N\O | active: 25.1 µM | – |
| CN(C)c1ccc(/C=C2\C=Cc3ccccc32)cc1Br | inconclusive: 20 µM [inhibitor, full curve, poor fit] | – |
| COc1cccc(C(=O)CN2CCN(S(=O)(=O)c3ccc(Br)cc3)CC2)c1 | inconclusive: 14.1 µM [inhibitor, partial curve] | – |
| CCN(Cc1ccncc1)Cc1nc(-c2ccc(C(=O)OC)cc2)no1 | inconclusive: 89.1 µM [inhibitor, partial curve, poor fit] | – |
| CCC(=O)c1ccc(NC(C)=O)cc1O | inconclusive: 79.4 µM [inhibitor, partial curve, poor fit] | – |
| Cc1ccc(CNC(=O)C2(C(F)(F)F)C/C(=C\Cc3ccccc3)CCCO2)o1 (stereo not drawn) | active: 28.2 µM | – |
| CCN1C(=O)/C(=C\C=C2/C=CC=CN2CC)SC1=S | inconclusive: 31.6 µM [inhibitor, partial curve] | – |
| COC(=O)CCc1c(COC(C)=O)[nH]c(C(=O)OCc2ccccc2)c1C | inconclusive: 8.91 µM [inhibitor, full curve] | – |
| Cn1cccc1/C=C1\CCC/C(=C\c2cccn2C)C1=O | inconclusive: 12.6 µM [inhibitor, single point] | – |
| Cc1ccc2c(c1)CC1(CN2C)C(=O)OC(C)(C)OC1=O | inactive and active: 20 µM | – |
| CC1CCN(CC(CS(=O)(=O)c2ccc([N+](=O)[O-])cc2)N2CCC(C)CC2)CC1 (stereo not drawn) | inconclusive: 0.708 µM [inhibitor, full curve] | – |
| O=C1C2=C(c3ccccc31)[N+](=O)[C@@H]1CCCC[C@@H]1N2[O-] | – | inactive: -0.858% |
| COc1cc2nc(C#Cc3nc4cc(OC)c(OC)cc4[nH]3)[nH]c2cc1OC | – | inactive: 86.5% |
| C/C(=N\NC(=O)c1nnn(-c2nonc2N)c1CN(C)c1ccccc1)c1ccccc1O | – | inactive: 6.94% |

| SMILES | Potency | activity change, negative = inhibition |
| --- | --- | --- |
| O=C(CS(=O)(=O)c1ccc(F)cc1)Nc1nccs1 | – | inactive: 4.69% [at 57.1 µM] |
| N#Cc1c(NC(=O)CSc2nc3ccccc3s2)sc2c1CCCC2 | inconclusive: 70.8 µM [inhibitor, single point] | – |
| O=C(CSc1ncc2c(n1)-c1cc(Cl)ccc1N(Cc1ccccc1)S2(=O)=O)NCc1ccccc1 | – | inactive: 14% [at 57.1 µM] |
| O=c1[nH]c2ccc(Cl)cc2c(-c2ccccc2)c1SC(=S)N1CCCCC1 | inconclusive: 44.7 µM [inhibitor, partial curve, poor fit] | – |
| CCNc1nc(SC(C)C(=O)OC)nc(N(C)C)n1 (stereo not drawn) | – | inactive: -6.01% [at 57.1 µM] |
| O=[N+]([O-])c1cc(-c2nc(-c3ccncc3)no2)ccc1Cl | inconclusive: 3.16 µM [inhibitor, partial curve, poor fit] | – |
| CC1CN(Cc2c(O)ccc3c2oc(=O)c2ccccc23)CC(C)O1 (stereo not drawn) | inconclusive: 50.1 µM [inhibitor, partial curve, poor fit] | – |
| C#CC(N)CCC(=O)O (stereo not drawn) | inconclusive: 1.68 µM [inhibitor, full curve, poor fit] | – |
| CCc1ccccc1NC(=O)c1ncoc1-c1ccco1 | – | inactive: -1.35% [at 57.1 µM] |
| COc1ccc(Sc2ccccc2CN(C)C)cc1OC | – | inactive: 19.7% [at 57.1 µM] |
| COc1ccccc1N1C(=O)C2CCC(c3ccccc3)CC2C1=O (stereo not drawn) | inconclusive: 89.1 µM [inhibitor, single point] | – |
| COc1ccc(CN2[C@@H](CC(C)=O)c3ccc(/C=C/C(C)=O)cc3S2(=O)=O)cc1 | inconclusive: 79.4 µM [inhibitor, single point] | – |
| CC(C)(C)c1ccc(C(=O)N2CCC(=O)N(C(COCc3ccccc3)Cc3ccccc3)CC2)cc1 (stereo not drawn) | – | inactive: 11.5% [at 57.1 µM] |
| Cc1ccccc1C(CC(=O)c1cccs1)C(C#N)C#N (stereo not drawn) | active: 10 µM | – |
| COc1cc(S(=O)(=O)NCc2ccncc2)ccc1Br | – | inactive: -5.88% |
| Cc1ccc(S(=O)(=O)N2CCCCC2)cc1NC(=S)NC(=O)c1ccco1 | inconclusive: 14.1 µM [inhibitor, full curve] | – |
| Cc1ccc(C)n1-c1ccc(C(=O)NCC2CCCO2)cc1 (stereo not drawn) | inconclusive: 5.01 µM [inhibitor, full curve] | – |
| CN1CCC(=O)N(C(CSc2ccc(Br)cc2)c2ccccc2)CC1 (stereo not drawn) | – | inactive: -16.4% |
| COCCN(C(=O)Cc1cccs1)C(C(=O)NCc1ccc(OC)cc1)c1ccc(C)cc1 (stereo not drawn) | – | inactive: 8.18% |
| COc1cc2c(cc1NC(=O)CSc1ccccc1)oc1ccccc12 | – | inactive: 10.4% |
| CSc1ccc(-c2nc(CSCC(=O)NCCCN3CCCC3=O)c(C)o2)cc1 | – | inactive: -31.6% |
| CNC(=S)Nc1ccc([N+](=O)[O-])c(C)c1 | inconclusive: 39.8 µM [inhibitor, partial curve] | – |
| C/C(=N\NC(=O)c1ccc(O)cc1)c1cccc(NC(=O)c2ccc(Cl)cc2)c1 | – | inactive: 24.8% [at 11.4 µM] |
| Cc1cc(C(F)(F)F)nc(SCc2ccc(C(=O)O)o2)n1 | inconclusive: 20 µM [inhibitor, single point] | – |
| COc1ccc(Br)cc1S(=O)(=O)Nc1ncccc1C | – | inactive: 33.2% |

| SMILES | Potency | activity change, negative = inhibition |
| --- | --- | --- |
| COC(=O)C1=C(C)NC(=O)/C1=C\c1cc(C)n(-c2cccc(C)c2)c1C | inconclusive: 44.7 µM [inhibitor, partial curve] | – |
| O=C(Cc1nc2ccccc2[nH]1)N/N=C/c1ccccc1 | inconclusive: 31.6 µM [inhibitor, partial curve] | – |
| O=C1c2c(O)cccc2Cc2cccc(O)c21 | – | inactive: 4.56% [at 57.1 µM] |
| N/C(=N\N=C\c1ccc(O)c(O)c1)c1nonc1N | – | inactive: 4.55% |
| O=C(O)c1ccc(N2CC3CC(C2)c2cccc(=O)n2C3)c(NC(=S)Nc2ccc(Cl)cc2Cl)c1 (stereo not drawn) | inconclusive: 70.8 µM [inhibitor, single point] | – |
| CCOc1ccc(NC(=O)CN2CCN(CC(=O)Nc3ccc(OC)cc3OC)CC2)cc1 | inconclusive: 89.1 µM [inhibitor, partial curve, poor fit] | – |
| Cc1ccc2c(CN3CCCc4ccccc43)cc(=O)oc2c1C | inconclusive: 70.8 µM [inhibitor, single point] | – |
| Cc1ccc(-c2csc3ncnc(Oc4ccc5c(C)cc(=O)oc5c4)c23)cc1 | – | inactive: -6.04% |
| COc1ccc2cc(CN(CCc3ccccc3)Cc3nnnn3Cc3ccco3)c(=O)[nH]c2c1 | inconclusive: 15.8 µM [inhibitor, full curve] | – |
| COc1ccc(OC)c(C(c2nnnn2CCC(C)C)N2CCN(C(=O)c3ccco3)CC2)c1 (stereo not drawn) | inconclusive: 25.1 µM [inhibitor, full curve, poor fit] | – |
| Oc1c(Cl)cc(Cl)cc1/C=C/c1ccc2cccc(O)c2n1 | – | inactive: 16.1% [at 57.1 µM] |
| O=C(Nc1ccccc1N1CCCC1)C1CC(=O)N(Cc2ccccc2)C1 (stereo not drawn) | inconclusive: 89.1 µM [inhibitor, single point] | – |
| O=C1C(Nc2ccccc2)=C(NS(=O)(=O)c2ccccc2)C(=O)c2ccccc21 | inconclusive: 79.4 µM [inhibitor, single point] | – |
| CCOc1ccc(/C=N/NC(=O)c2ccoc2C)cc1OC | inconclusive: 31.6 µM [inhibitor, single point] | – |
| CCOC(=O)c1cccc(NC(=O)CCS(=O)(=O)c2cccc3nsnc23)c1 | inconclusive: 39.8 µM [inhibitor, partial curve] | – |
| Cc1cccc(OCC(=O)NCC2(N3CCN(C)CC3)CCCCC2)c1C | – | inactive: 2.76% |
| O=C(NCCC(=O)N1CCc2ccccc21)c1ccco1 | – | inactive: 16.6% |
| CCc1ccc(S(=O)(=O)c2nnn(-c3ccc(F)cc3)c2N)cc1 | – | inactive: 10.7% |
| COc1ccccc1N1CCN(CC(=O)c2ccc(F)cc2)CC1 | inconclusive: 28.2 µM [inhibitor, partial curve] | – |
| COc1ccc2c(=O)c3c(=O)n(Cc4ccco4)c(-c4ccc(C)cc4)nc3oc2c1 | inconclusive: 28.2 µM [inhibitor, single point] | – |
| O=C(CSc1ccc2nnc(-c3cccc(F)c3)n2n1)NCc1ccco1 | inconclusive: 56.2 µM [inhibitor, partial curve, poor fit] | – |
| C=CCN(CC=C)S(=O)(=O)c1ccc(NC(=S)NC(=O)c2ccco2)cc1 | inconclusive: 20 µM [inhibitor, single point] | – |
| COc1ccc(NC2CS(=O)(=O)CC2NCc2ccco2)cc1 (stereo not drawn) | inconclusive: 17.8 µM [inhibitor, partial curve, poor fit] | – |
